# According to PubChem BioAssay AID588855 (National Center for Advancing Translational Sciences (NCATS), 2011):
# About 5,000 (1.2%) of roughly 410,000 compounds were called active. The shares of active, inactive and inconclusive entries below differ from those in the screen. The call rests on the fitted dose curve; in most records, active means well fitted inhibition curve with a large enough effect; inconclusive means small, poorly fitted or top-dose-only effect; inactive means no such curve, though single readings can be large or run the other way. Where the call is inconclusive, the potency comes from a doubtful curve fit.
# Test: qHTS for Inhibitors of TGF-b; further: nearly all actives have a fitted effect of over 65% in size
# Conditions: HepG2 CAGA-GFP TGF-b/SMAD3 reporter, GFP fluorescence, 18 h, TGF-beta stimulated, 500 pg/mL final; series mostly up to 46.1 µM; activity, negative = inhibition: at the top concentration
# Summary of the method: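 HEPG2 CAGA-GFP reporter cells (1000/well, DMEM with 1% FBS) received compounds, then recombinant TGF-beta at 500 pg/mL final for 18 hours at 37 degrees C. Per-cell GFP summed per well was normalised to unstimulated and stimulated DMSO controls before curve fitting.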
# On the % scale 0 is the no-effect control and ±100 the full control effect; potency means the concentration at half of the fitted maximal effect; tags describe the fitted curve by direction and shape.
Compound,Potency,"activity, negative = inhibition"
O=C(NC1CCCCNC1=O)c1ccccc1 (configuration not stated),"inconclusive: 6.31 µM [inhibitor, single point]",
CC1CC(C)CN(C(=O)c2cc3ccccc3o2)C1 (configuration not stated),,inactive: -3.93%
CC(C(=O)OCC(=O)NC1CCCCC1)N1C(=O)c2ccccc2C1=O (configuration not stated),,inactive: -17.5%
Cc1ccc(C)c(CN2CCC(n3nccc3NC(=O)CCCc3ccccc3)CC2)c1,"inconclusive: 22.4 µM [inhibitor, partial curve, poor fit]",
CN(CC(=O)Nc1ccc(Cl)c(C(F)(F)F)c1)C(=O)CC1Sc2ccccc2NC1=O (configuration not stated),"inconclusive: 31.6 µM [inhibitor, single point]",
Cc1ccc(CCNS(=O)(=O)c2cc(-c3cc(C)no3)ccc2C)cc1,"inconclusive: 5.01 µM [inhibitor, full curve, poor fit]",
CC(C)CC1C(=O)N(Cc2cn(Cc3ccco3)nn2)CCS(=O)(=O)N1Cc1ccc(-c2cccc(CO)c2)cc1 (configuration not stated),,inactive: -22.2%
O=C(NCCCN1CCOCC1)c1ccc(NS(=O)(=O)c2cccc([N+](=O)[O-])c2)cc1,"inconclusive: 0.447 µM [inhibitor, full curve, poor fit]",
CC(Oc1ccc(F)cc1)C(=O)Nc1sc2c(c1C(=O)NCc1cccnc1)CCCC2 (configuration not stated),"inconclusive: 28.2 µM [inhibitor, single point]",
O=C(c1ccc(Cl)c(S(=O)(=O)N2CCCCC2)c1)N1CCN(c2ccccc2)CC1,"inconclusive: 4.47 µM [inhibitor, full curve, poor fit]",
COCCN(Cc1cccs1)S(=O)(=O)c1cc(-c2cc(C)no2)ccc1C,,inactive: 0%
CCc1cccc2sc(N3CCN(C(=O)c4ccc([N+](=O)[O-])o4)CC3)nc12,active: 17.8 µM,
CC(=O)Nc1cc(NC(=O)CCCC(=O)O)ccc1Cl,"inconclusive: 22.4 µM [inhibitor, partial curve, poor fit]",
O=C(Oc1ccc(N(C(=O)c2ccncc2)S(=O)(=O)c2ccc(Cl)cc2)cc1)c1ccncc1,"inconclusive: 6.31 µM [inhibitor, single point]",
O=C(Cn1c(-c2ccccc2)c[n+]2ccsc12)c1ccc([N+](=O)[O-])cc1,"inconclusive: 25.1 µM [inhibitor, single point]",
CCOCCCN(Cc1ccco1)S(=O)(=O)c1cc2c(cc1Cl)NC(=O)CO2,,inactive: -27.2%
Cc1cc2c(=O)n(C)c(SCC(=O)Nc3cccc(F)c3)nc2s1,,inactive: 10.8%
CCOC(=O)CC1c2nc3ccccc3cc2CN1C(=O)OCC (configuration not stated),,inactive: -11.6%
COc1ccsc1C(=O)N1CCN(Cc2ccc3c(c2)OCO3)CC1,,inactive: 9.73%
COc1ccc(N2CCN(C(=O)c3ccccc3Br)CC2)c([N+](=O)[O-])c1,,inactive: -10.1%
COc1cc(NC(=O)CSc2nnc(C)n3c2cc2oc(C)cc23)cc(OC)c1,"inconclusive: 35.5 µM [inhibitor, single point]",
Cc1ccccc1-c1noc(-c2ccc(N3CCCCC3)c([N+](=O)[O-])c2)n1,,inactive: 11.5%
COc1cc(NC(=O)COc2cc3oc(=O)cc(C)c3cc2Cl)cc(OC)c1OC,,inactive: -1.87%

Compound,Potency,"activity, negative = inhibition"
CCCCN(CC)CCCNC(=O)CS(=O)(=O)Cc1nc(-c2ccc(C)cc2)oc1C,"inconclusive: 11.2 µM [inhibitor, single point]",
COc1ccc(C(=O)NCC(=O)OCC(=O)c2cc(OC)c(OC)c(OC)c2)cc1OC,,inactive: 6.48%
CCCOc1ccc(C(=O)Nc2ccc3oc(-c4ccncc4)nc3c2)cc1,,inactive: -4.61%
COc1cc(/C=C(\C#N)C(N)=O)ccc1OS(=O)(=O)c1ccc(C)cc1,,inactive: 8.46%
CCOc1ccc(S(=O)(=O)N2CCC(C(=O)N3CCN(c4ccccc4F)CC3)CC2)cc1C,"inconclusive: 0.562 µM [inhibitor, full curve]",
COc1ccc(CC(=O)Nc2ccc3nc(Nc4ccc(OC)cc4)cc(C)c3c2)cc1,"inconclusive: 15.8 µM [inhibitor, single point]",
COc1cccc(NC(=O)Cn2c(=O)n(CCCC(=O)NCc3ccco3)c(=O)c3ccccc32)c1,"inconclusive: 3.16 µM [inhibitor, single point]",
CCCCC1=CC2=C(c3ccco3)C(=O)C(C)(OC(=O)c3ccc(OC)cc3)C(=O)C2=CN1Cc1ccccc1 (configuration not stated),"inconclusive: 15.8 µM [inhibitor, partial curve, poor fit]",
Cc1c(Cl)ccc2sc(N3CCN(C(=O)C(C)C)CC3)nc12,"inconclusive: 15.8 µM [inhibitor, single point]",
Cc1ccc(NS(=O)(=O)c2ccccc2)c(NS(=O)(=O)c2ccccc2)c1,,inactive: -4.13%
COc1ccc(/C=C\c2onc(C)c2S(=O)(=O)N2CCC(C(=O)Nc3ccc(F)cc3F)CC2)cc1,,inactive: -30.1%
O=C(Nc1ccc(N2CCOCC2)c(Cl)c1)C1CCCCC1,"inconclusive: 3.55 µM [inhibitor, single point]",
O=C(NCc1ccccc1Cl)c1ccc2c(c1)NC(=O)C(CS(=O)(=O)Cc1ccc(F)cc1Cl)N2 (configuration not stated),"inconclusive: 35.5 µM [inhibitor, single point]",
Cc1oc(-c2cccc(Cl)c2)nc1CSc1nncn2c1cc1occc12,,inactive: -27.2%
CC(/C=N/NC(=O)c1cc(-c2ccncc2)nc2ccccc12)=C\c1ccco1,"inconclusive: 1.12 µM [inhibitor, full curve, poor fit]",
COc1ccc(OC)c(CCNC(=O)CS(=O)(=O)Cc2nc(-c3cccc(Cl)c3)oc2C)c1,active: 15.8 µM,
CCOC(=O)c1ccc(N2C(=O)c3n[nH]c(-c4cccs4)c3C2c2ccc(OCC)cc2)cc1 (configuration not stated),active: 1.58 µM,
COc1ccc(S(=O)(=O)NCC(c2cccnc2)N2CCN(c3ccccc3)CC2)cc1C (configuration not stated),"inconclusive: 11.2 µM [inhibitor, partial curve, poor fit]",
CCOC(=O)N1CCN(C(=O)C(=O)c2cn(CC(=O)N3CCCCCC3)c3ccccc23)CC1,,inactive: 3.17%
CCOc1ccc(NC(=O)CC2C(=O)N(c3ccc(F)cc3)C(=O)N2Cc2ccc(OC)c(OC)c2)cc1 (configuration not stated),"inconclusive: 35.5 µM [inhibitor, single point]",
CCN1CCN(C(=O)c2cc(-c3ccc(Cl)s3)nc3ccccc23)CC1,"inconclusive: 22.4 µM [inhibitor, single point]",
O=C(Nc1ccc2ccccc2n1)Nc1cccs1,,inactive: 0.473%
CC12CN3CC(c4ccccc4)(CN(C1)C3c1ccc(O)cc1)C2=O (configuration not stated),"inconclusive: 0.891 µM [inhibitor, full curve, poor fit]",

Compound,Potency,"activity, negative = inhibition"
COCCNc1c2c(nc3c(-c4ccccc4)c(C)nn13)CCCC2,"inconclusive: 35.5 µM [inhibitor, single point]",
CCn1c(C(=O)NCc2ccc(F)cc2)cc2oc3ccccc3c21,"inconclusive: 28.2 µM [inhibitor, partial curve, poor fit]",
COc1ccc2sc(-c3ccccc3OC)c(-c3ccc(OCCN4CCOCC4)cc3)c2c1,,inactive: -1.98%
CCOc1ccc(C(=O)NC(C(=O)NCc2ccccc2OC)C(C)C)cc1 (configuration not stated),,inactive: 9.4%
COc1ccc(C(=O)N[C@H](C(=O)Nc2nc3ccccc3[nH]2)C(C)C)cc1,"inconclusive: 3.55 µM [inhibitor, full curve, poor fit]",
CCOc1ccc(/C=C2\SC(=S)N(CCC(=O)Nc3ccccc3C(=O)O)C2=O)cc1,"inconclusive: 5.62 µM [inhibitor, single point]",
NC(=O)c1sc2nc3c(c(-c4ccccc4)c2c1N)CCC3,"inconclusive: 35.5 µM [inhibitor, single point]",
O=S(=O)(NCC(c1ccco1)N1CCN(c2ccccc2F)CC1)c1ccccc1 (configuration not stated),"inconclusive: 11.2 µM [inhibitor, single point]",
COc1cccc(OCc2nc3ccccc3n2CCOc2ccc(C)cc2)c1,"inconclusive: 22.4 µM [inhibitor, single point]",
Cc1cc(OCCCCCn2ccnc2)cc(C)c1Cl,"inconclusive: 35.5 µM [inhibitor, single point]",
Cc1cccc(-n2ncc3c2CCCC3NC(=O)c2cccs2)c1C (configuration not stated),,inactive: 2.77%
Cc1ccc(Cn2c(C(=O)O)c(CNCc3ccc(OC(C)C)cc3)c3ccc(C)cc32)cc1,"inconclusive: 7.94 µM [inhibitor, partial curve, poor fit]",
CC(=O)OCC1OC(n2ccc3ccccc32)C(OC(C)=O)C(OC(C)=O)C1OC(C)=O (configuration not stated),"inconclusive: 35.5 µM [inhibitor, single point]",
O=C(CCC(=O)N1CCN(c2ccc(F)cc2)CC1)c1ccc(F)cc1,"inconclusive: 35.5 µM [inhibitor, single point]",
CCN(c1ccccc1)S(=O)(=O)c1ccc(NC(=O)c2nc(SC)ncc2Cl)cc1,"inconclusive: 5.01 µM [inhibitor, partial curve]",
O=C(NC(NC(=S)Nc1ccccc1)C(Cl)(Cl)Cl)c1cccc(Cl)c1 (configuration not stated),active: 4.47 µM,
Nc1nc(CN2CCC(Cc3ccccc3)CC2)nc(Nc2ccccc2)n1,,inactive: 0%
CCCCCOc1ccc(Br)cc1/C(C)=N/NC1=NCCN1,"inconclusive: 0.562 µM [inhibitor, full curve]",
COc1ccc(-c2ccc(CCC(=O)O)n2CC(C)C)cc1,"inconclusive: 35.5 µM [inhibitor, single point]",
Cc1cccc(-n2c(SCC(=O)Nc3ncc(Cl)cc3Cl)nc3ccccc32)c1,"inconclusive: 22.4 µM [inhibitor, single point]",
CS(=O)(=O)Nc1nnc(Cc2ccccc2)s1,"inconclusive: 3.98 µM [inhibitor, partial curve, poor fit]",
